Data taken from article PMC5653232 (Cell reports, 2017).

Tested on: H3K9Cme3-NCP
Assay: EMSA, CHD3 PHD1/2 with H3K9Cme3-NCP
Format: binding, human
Settings: 5 nM NCP, 8.3 mM Tris-HCl pH 7.5, 62.5 mM NaCl, 5% native gel

B1: CHD3 PHD1/2: natively linked tandem PHD fingers of CHD3, construct PHD1/2 (373–508) (protein)
chain: GYETDHQDYCEVCQQGGEIILCDTCPRAYHLVCLDPELDRAPEGKWSCPHCEKEGVQWEAKEEEEEYEEEGEEEGEKEEEDDHMEYCRVCKDGGELLCCDACISSYHIHCLNPPLPDIPNGEWLCPRCTCPVLKGR
modifications: left off: GST, end not stated, cleaved
concentration at which shift of the H3K9Cme3-NCP band is visible: 3 µM
